Reference: the supplement of paper PMC3334620
The full ranking holds about 33,000 sequences; the median of “E-score (-0.5 to 0.5)” is about -0.032, and the highest 2% start at about 0.36. The list shows a part of the results.

Target: T1, Sko1 (UniProt Q02100)
T1 sequence: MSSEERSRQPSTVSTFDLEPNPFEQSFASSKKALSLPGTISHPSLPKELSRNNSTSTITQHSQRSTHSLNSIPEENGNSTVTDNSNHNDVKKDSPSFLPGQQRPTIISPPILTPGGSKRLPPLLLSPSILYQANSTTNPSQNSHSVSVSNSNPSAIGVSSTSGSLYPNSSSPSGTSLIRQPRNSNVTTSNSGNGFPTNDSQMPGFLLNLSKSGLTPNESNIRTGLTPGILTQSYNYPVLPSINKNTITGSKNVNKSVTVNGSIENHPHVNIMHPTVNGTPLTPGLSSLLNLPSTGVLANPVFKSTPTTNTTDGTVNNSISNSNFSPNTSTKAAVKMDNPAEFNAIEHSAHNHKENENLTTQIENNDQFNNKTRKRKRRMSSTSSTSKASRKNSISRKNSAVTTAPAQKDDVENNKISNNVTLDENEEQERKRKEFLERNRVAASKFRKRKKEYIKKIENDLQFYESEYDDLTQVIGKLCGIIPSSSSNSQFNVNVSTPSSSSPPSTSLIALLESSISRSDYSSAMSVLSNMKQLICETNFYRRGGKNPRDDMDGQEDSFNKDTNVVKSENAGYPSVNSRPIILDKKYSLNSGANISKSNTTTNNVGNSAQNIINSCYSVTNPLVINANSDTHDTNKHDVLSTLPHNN
Assay: PBM E-score (8-mer binding enrichment) (E-score (-0.5 to 0.5)); higher = stronger / more preferred TF binding; most listed sequences are background and not binding sites
Conditions: protein concentration: 200 nM; construct: GST-full length
How it was run: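 The E-score, a modified Wilcoxon-Mann-Whitney statistic, was computed by the Universal PBM Analysis Suite for every ungapped eight-base word pooled with its reverse complement. Scans behind it were normalised with masliner after bound GST-tagged yeast transcription factors were detected with fluorescent anti-GST. The proteins, at about 100-200 nM, had been applied to universal all-10-mer Agilent arrays made double-stranded by primer extension.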

| Sequence | PBM E-score |
| --- | --- |
| GTCGAAAA | 0.159 |
| ATCCGGGG | -0.265 |
| TGGCGACA | -0.0175 |
| AATTAACA | 0.216 |
| TAAAACTA | 0.164 |
| AGCTGTGA | 0.0824 |
| CTTTAGTA | -0.00187 |
| AGAATGAT | 0.157 |
| AAGTACTC | -0.119 |
| CAATAGTA | 0.0317 |
| GTTCGTAA | 0.355 |
| GTTGTCCA | -0.0227 |
| AAATCCAG | -0.0699 |
| ACGCTTAT | -0.0333 |
| GACCAGGC | -0.202 |
| AGAGACAG | -0.258 |
| AGATTAGC | -0.0226 |
| GTGCAGAA | 0.188 |
| TAATTCCA | 0.219 |
| ATTTGGAA | -0.001 |
| CTAGGATC | -0.255 |
| ATAGGGTA | -0.118 |
| GAGTCCTA | -0.133 |
| GCAGAGCA | -0.179 |
| AAGGTCAA | -0.0521 |

| Sequence | PBM E-score |
| --- | --- |
| AACTCCAC | 0.00529 |
| CTTGCGAC | -0.193 |
| CGGCCCCA | -0.335 |
| ATCGAGCC | -0.182 |
| GCTTAACA | -0.0101 |
| TGAAGGCA | -0.116 |
| CATGCATA | 0.201 |
| TCGGTGCA | -0.219 |
| TAGTGGAA | -0.149 |
| CTCACATA | 0.0747 |
| CGGCGATC | -0.124 |
| CCGGCAGA | -0.396 |
| GCGCCGGA | -0.0799 |
| ACTTTCTC | -0.153 |
| GTCGATCA | -0.0654 |
| GCCCGGTA | -0.333 |
| GGTTTCAA | -0.0777 |
| ATTCGTTA | 0.21 |
| AATCTTGA | 0.126 |
| CGTAAATA | 0.352 |
| ATTTTCCG | 0.0868 |
| ATTGAGCG | -0.109 |
| AATGCATG | 0.158 |
| CGGACTGC | -0.0639 |
| CAGTTAAC | -0.0202 |

| Sequence | PBM E-score |
| --- | --- |
| GCTGCCCC | -0.222 |
| ACCCATAA | -0.118 |
| AGGCATGG | -0.112 |
| AGATCGAG | -0.117 |
| GCCCCCTA | -0.278 |
| AGTGCCTG | -0.243 |
| GGAAGTCA | 0.0457 |
| AGCATGCC | -0.196 |
| CGCCCGCA | -0.0611 |
| CACGCTAA | -0.072 |
| AATGCTTA | -0.1 |
| GGGGTCAA | -0.0777 |
| AAACGAGA | -0.0276 |
| CCCTGTTC | -0.285 |
| TGGCAGAA | 0.037 |
| GATCCCCA | -0.0413 |
| CGAATCTA | 0.0743 |
| CAACTGGG | -0.215 |
| GAGCACAC | -0.00506 |
| ATCTCGCG | 0.17 |
| GTTGCATA | 0.148 |
| CTTCCAAG | -0.165 |
| AAGCCATG | -0.0873 |
| ATGTTAAC | 0.137 |
| AGTCTCAG | -0.264 |

| Sequence | PBM E-score |
| --- | --- |
| ATCTACTA | 0.148 |
| ACTGTTTA | 0.185 |
| AGCAGCTA | 0.0401 |
| GACACCGA | 0.00291 |
| AACATAAG | 0.155 |
| CACTCAGG | -0.167 |
| AACCCACC | -0.0866 |
| GATACTTA | 0.0322 |
| CCAATCGA | -0.0746 |
| AATCGCTA | -0.037 |
| CCTAAAGC | -0.106 |
| TGAACTCA | 0.129 |
| GCCCTGAA | -0.0589 |
| ATCCATAC | 0.148 |
| GGGAGTAC | -0.0581 |
| ACCCAACG | -0.0412 |
| GGGTAGAA | -0.152 |
| ATGAAATA | 0.2 |
| ATATGGAC | 0.0409 |
| CCCATTCC | -0.392 |
| CTTCAACC | 0.0923 |
| GCAGGCCC | -0.343 |
| AAGATTAG | 0.062 |
| AAACTCCC | -0.0226 |
| GATGTCCC | -0.24 |

| Sequence | PBM E-score |
| --- | --- |
| ATTTTCGA | 0.215 |
| GCCTTAGC | -0.113 |
| GTGGTCTA | -0.124 |
| CCTAACCC | -0.241 |
| AACTAGAA | 0.0968 |
| GTCAGGAC | 0.147 |
| ACGATGCT | -0.118 |
| ACACCGTC | -0.0414 |
| AGCGCCCG | -0.093 |
| CTAGTAGA | 0.00136 |
| CACGGCCC | -0.0483 |
| CTTGGGAA | -0.0531 |
| AATAGAAC | 0.0147 |
| GCGTTGAA | -0.00274 |
| CAGTTGAC | 0.00329 |
| CCGCGCCA | -0.0943 |
| AACCGCGT | 0.148 |
| CACGTTCG | -0.00664 |
| CTAGGAGA | -0.147 |
| ATACAAAC | 0.208 |
| CACAGGTC | -0.262 |
| ATAGGCCG | -0.228 |
| GTACTTAA | 0.15 |
| CCCCTAAG | -0.211 |
| CGTTGCCC | -0.0966 |

| Sequence | PBM E-score |
| --- | --- |
| GAATTGGA | 0.0218 |
| CATGAACC | 0.032 |
| CACGTAGC | 0.364 |
| TGACTCCA | -0.0825 |
| TTAATAAA | 0.286 |
| GTAATGGA | 0.402 |
| GACCATGC | 0.0552 |
| AAGACTTC | -0.0853 |
| CCGTCAGG | -0.0861 |
| ACTCCTGG | -0.326 |
| CCGATACG | 0.0786 |
| GGCGCCGA | -0.217 |
| AACGAACA | 0.0373 |
| AGCCTGCC | -0.095 |
| TCCAAAAA | 0.00908 |
| CAACGTCA | 0.47 |
| GAGACCGA | -0.114 |
| AGTGACCG | -0.222 |
| GCCTAGGC | -0.4 |
| CCTGGCTC | -0.137 |
| ACGTCTAG | 0.356 |
| ACTCACGG | 0.0503 |
| CCGACGAA | 0.144 |
| ACCGTGGA | -0.265 |
| CAGTAAGA | 0.0474 |

| Sequence | PBM E-score |
| --- | --- |
| AGTGGTGC | -0.206 |
| AGGTGAGC | -0.248 |
| ACCCCCTG | -0.327 |
| GCCTGACC | -0.328 |
| GTCAACCA | 0.0809 |
| ATGACGAC | 0.466 |
| CGTCATTA | 0.487 |
| AACCAACA | 0.0388 |
| ATCATCCC | 0.0462 |
| CGTTTATC | 0.237 |
| ACTAAACA | 0.159 |
| ATAGTGGG | -0.124 |
| ACCACGCG | 0.107 |
| CGCGTGGA | -0.187 |
| CGTGGCAG | 0.0975 |
| GTTAGGGA | -0.127 |
| GCGAAAGC | -0.126 |
| AGTACAGG | -0.0388 |
| ATAATGTC | 0.0617 |
| AGCATTTG | -0.0323 |
| AAAGAAGG | -0.0804 |
| CCGTAACA | 0.0942 |
